# Results: the supplement of paper PMC4996465
# Viability of KB3-1 and Nalm-6 cells after 48 h of drug alone (CellTiter-Glo), 11 doses over about 4.5 log units. % of DMSO wells, lower = more cell loss; AC50 from the fitted curve, lower = more potent. No active / inactive call. Nalm-6 was screened in two runs. AC50 is listed only for well-fitted inhibitory curves. KB3-1 is a HeLa-derived carcinoma line, Nalm-6 a B-cell precursor leukaemia line.
# Legend:
# KB3-1 [1] = experiment: viability (% of DMSO control); higher = more viable cells
# Experimental: (§1)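 Eleven-dose screen of the NCATS MIPE 3 library on cells without co-treatment; CellTiter-Glo after 48 h, as % of DMSO wells.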
# Nalm-6 [2] = experiment: as above
# Experimental: as §1
# KB3-1 [3] = experiment: log AC50 of viability decrease (48 h) (log10 M); higher = less potent
# Experimental: (§2)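 Eleven-dose screen of the NCATS MIPE 3 library on cells without co-treatment; CellTiter-Glo after 48 h. AC50 from the curve fit; only inhibitory curves of the better fit classes are listed.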
# Nalm-6 [4] = experiment: as above
# Experimental: as §2
Compound,viability (KB3-1 [1]; 0.00078 µM) [%],viability (KB3-1 [1]; 0.00234 µM) [%],viability (KB3-1 [1]; 0.00702 µM) [%],viability (KB3-1 [1]; 0.0211 µM) [%],viability (KB3-1 [1]; 0.0632 µM) [%],viability (KB3-1 [1]; 0.19 µM) [%],viability (KB3-1 [1]; 0.569 µM) [%],viability (KB3-1 [1]; 1.71 µM) [%],viability (KB3-1 [1]; 5.12 µM) [%],viability (KB3-1 [1]; 15.4 µM) [%],viability (KB3-1 [1]; 46.1 µM) [%],"viability (Nalm-6 [2]; run: 1, 0.00078 µM) [%]","viability (Nalm-6 [2]; run: 1, 0.00234 µM) [%]","viability (Nalm-6 [2]; run: 1, 0.00702 µM) [%]","viability (Nalm-6 [2]; run: 1, 0.0211 µM) [%]","viability (Nalm-6 [2]; run: 1, 0.0632 µM) [%]","viability (Nalm-6 [2]; run: 1, 0.19 µM) [%]","viability (Nalm-6 [2]; run: 1, 0.569 µM) [%]","viability (Nalm-6 [2]; run: 1, 1.71 µM) [%]","viability (Nalm-6 [2]; run: 1, 5.12 µM) [%]","viability (Nalm-6 [2]; run: 1, 15.4 µM) [%]","viability (Nalm-6 [2]; run: 1, 46.1 µM) [%]","viability (Nalm-6 [2]; run: 2, 0.00078 µM) [%]","viability (Nalm-6 [2]; run: 2, 0.00234 µM) [%]","viability (Nalm-6 [2]; run: 2, 0.00702 µM) [%]","viability (Nalm-6 [2]; run: 2, 0.0211 µM) [%]","viability (Nalm-6 [2]; run: 2, 0.0632 µM) [%]","viability (Nalm-6 [2]; run: 2, 0.19 µM) [%]","viability (Nalm-6 [2]; run: 2, 0.569 µM) [%]","viability (Nalm-6 [2]; run: 2, 1.71 µM) [%]","viability (Nalm-6 [2]; run: 2, 5.12 µM) [%]","viability (Nalm-6 [2]; run: 2, 15.4 µM) [%]","viability (Nalm-6 [2]; run: 2, 46.1 µM) [%]",log AC50 of viability decrease (KB3-1 [3]),log AC50 of viability decrease (Nalm-6 [4]; run: 1),log AC50 of viability decrease (Nalm-6 [4]; run: 2)
Cc1nc(N)sc1-c1ccnc(Nc2ccc(N3CCOCC3)cc2)n1 [CYC-116],97.8,91.9,97.7,102,96.6,86.9,86.1,82.7,73,66.5,26.1,94,104,99.1,104,103,58.4,54.2,56.4,40.4,28.8,4.62,109,108,103,106,100,76.4,68.6,72.4,45.5,23.3,4.87,-4.73,-5.78,-5.23
N#CCNC(=O)c1ccc(-c2ccnc(Nc3ccc(N4CCOCC4)cc3)n2)cc1 [CYT387],103,95.3,97.9,103,101,96.6,100,89.6,70.3,62.7,31,111,110,112,115,108,107,84.5,72.6,51.4,36.4,4.87,102,100,110,104,101,101,87.1,79,46.8,24.3,4,-4.78,-5.28,-5.28
C=CC(=O)Nc1cc2c(Nc3ccc(F)c(Cl)c3)ncnc2cc1OCCCN1CCOCC1 [Canertinib],102,98.6,103,103,96.5,100,102,98,97.2,89.9,1.97,125,117,124,126,105,113,104,81.1,66.3,45.7,0.968,111,113,110,115,90.7,105,98.7,81.8,73.8,50.5,1.65,-4.58,-4.88,-4.73
